In PubChem BioAssay (Tox21):
The inconclusive results got no clear call from the source; some entries with a clear call stand among them for comparison. For some of these results: No potency is given beside an inconclusive call; the fits are too rough. Activity calls are given as the source filed them. Unless noted, the call rests on the fitted dose curve; in most records, active means well fitted curve in the direction sought with a large enough effect in the repeat runs; inconclusive means weak or mixed curves; inactive means no such curve, though single readings can be large; an effect the other way counts as inactive or inconclusive.

Tests used:
[1] = qHTS assay to identify small molecule agonists of the TGF-beta/Smad signaling pathway - cell viability counter screen (AID 1346829); conditions: SBE-bla HEK293T viability, CellTiter-Glo luminescence, 5 h; series mostly up to 76.8 µM; further: top concentration of the series differs between compounds; on the % scale 0 is the no-effect control and ±100 the full control effect; nearly all actives have a fitted effect of over 45% in size
Summary of the method: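 In parallel with the Smad reporter read, viability of HEK 293T cells stably carrying SBE-bla is quantified by ATP luminescence following 5 hr compound treatment.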

[2] = target: Thyrotropin-releasing hormone receptor (Homo sapiens) (UniProt P34981); experiment: qHTS assay to identify small molecule antagonists of the thyrotropin-releasing hormone receptor (TRHR) signaling pathway (AID 1346877; active means well fitted inhibition curve with a large enough effect in the repeat runs, not every such curve was filed as active; inconclusive means weak or mixed curves; further: on the % scale 0 is the no-effect control and ±100 the full control effect); conditions: TRHR-HEK293, TRH-induced calcium fluorescence, antagonist mode; series mostly up to 51.3 µM
Summary of the method: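 Following an 18 h incubation at 37 °C and a 2 h calcium dye load, TRHR-HEK293 cells were exposed to compound (5 min, room temperature) and challenged with TRH, 1 nM final.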

[3] = target: Progesterone receptor (Homo sapiens) (UniProt P06401); experiment: qHTS assay to identify small molecule antagonists of the progesterone receptor (PR) signaling pathway (AID 1346795; active means well fitted inhibition curve with a large enough effect in the signal ratio in the repeat runs, not every such curve was filed as active; inconclusive means weak or mixed curves; the % refers to the signal ratio; further: potency means the concentration at half of the fitted maximal effect; on activity change, negative = inhibition: on the % scale 0 is the no-effect control and ±100 the full control effect); conditions: PR-UAS-bla HEK293T, beta-lactamase FRET ratio, 16 h; activity change, negative = inhibition: at 92.4 µM (top of the series) unless noted
Summary of the method: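 Beta-lactamase reporter, HEK293T PR-UAS-bla line; 2% charcoal-stripped FBS; 6 hr pre-incubation, 37C/5% CO2. Compound + R5020 1 nM final, 16 hr. LiveBLAzer B/G FRET substrate, 2 hr RT; fluorescence intensity read.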

[4] = qHTS assay to identify small molecule antagonists of the TGF-beta/Smad signaling pathway - cell viability counter screen (AID 1346824); conditions: SBE-bla HEK293T viability, CellTiter-Glo luminescence; series mostly up to 76.8 µM; further: potency means the concentration at half of the fitted maximal effect; nearly all actives have a fitted effect of over 50% in size
Summary of the method: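 Cytotoxicity counter-screen run in the same wells as the beta-lactamase Smad reporter read: CellTiter-Glo luminescence after 30 min at room temperature. HEK 293T SBE-bla cells had 5 hr compound exposure at 37 C with TGF-beta1 (0.25 ng/mL stock).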

[5] = qHTS assay to identify small molecule agonists of the TGF-beta/Smad signaling pathway (AID 1346859; active means well fitted activation curve with a large enough effect in the signal ratio in the repeat runs, not every such curve was filed as active; inconclusive means weak or mixed curves; the % refers to the signal ratio; further: potency means the concentration at half of the fitted maximal effect; on activation: on the % scale 0 is the no-effect control and ±100 the full control effect); conditions: SBE-bla HEK293T, TGF-beta/Smad beta-lactamase reporter, 5 h; activation: at 76.8 µM (top of the series)
Summary of the method: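 Read-out: fluorescence at 460 and 530 nm (405 nm excitation) after a 2 hr room-temperature incubation with beta-lactamase FRET substrate. SBE-bla HEK 293T cells had been treated with test compounds for 5 hr at 37 C.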

[6] = qHTS assay to identify small molecule antagonists of the progesterone receptor (PR) signaling pathway - cell viability counter screen (AID 1346798); conditions: PR-UAS-bla HEK293T viability, CellTiter-Glo luminescence, 16 h; series mostly up to 92.4 µM; further: on the % scale 0 is the no-effect control and ±100 the full control effect; nearly all actives have a fitted effect of over 50% in size
Summary of the method: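 Luminescence readout (CellTiter-Glo, 30 min, RT) of viability in PR-UAS-bla HEK293T cells exposed to compound and R5020 agonist for 16 hr at 37C, 5% CO2; run in the same wells as the beta-lactamase reporter read.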

[7] = qHTS assay to identify small molecule agonists of the progesterone receptor (PR) signaling pathway - cell viability counter screen (AID 1346799; calls by dose curve; further: nearly all actives have a fitted effect of over 45% in size; further: potency means the concentration at half of the fitted maximal effect); conditions: PR-UAS-bla HEK293T viability, CellTiter-Glo luminescence, 16 h; series mostly up to 92.4 µM
Summary of the method: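 HEK293T PR-UAS-bla, 3,000 cells/well, 2% charcoal-stripped FBS; 6 h settle, compound 16 h at 37C/5% CO2; LiveBLAzer 2 h RT, then CellTiter-Glo 30 min RT, luminescence read.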
Tags describe the fitted curve by direction and shape or compound fluorescence and quenching.

Chain of UniProt P34981 (P34981 whole entry, looked up): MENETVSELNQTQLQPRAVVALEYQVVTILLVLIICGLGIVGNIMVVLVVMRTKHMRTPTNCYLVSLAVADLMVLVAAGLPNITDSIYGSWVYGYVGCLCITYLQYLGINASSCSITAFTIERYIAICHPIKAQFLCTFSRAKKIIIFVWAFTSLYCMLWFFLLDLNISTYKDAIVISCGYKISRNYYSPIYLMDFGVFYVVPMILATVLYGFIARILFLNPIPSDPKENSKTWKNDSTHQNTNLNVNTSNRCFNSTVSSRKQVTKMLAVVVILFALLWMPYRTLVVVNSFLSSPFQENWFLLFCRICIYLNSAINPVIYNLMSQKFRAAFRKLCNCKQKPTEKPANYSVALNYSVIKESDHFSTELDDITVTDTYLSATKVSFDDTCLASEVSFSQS
Chain of UniProt P06401 (P06401 whole entry, looked up): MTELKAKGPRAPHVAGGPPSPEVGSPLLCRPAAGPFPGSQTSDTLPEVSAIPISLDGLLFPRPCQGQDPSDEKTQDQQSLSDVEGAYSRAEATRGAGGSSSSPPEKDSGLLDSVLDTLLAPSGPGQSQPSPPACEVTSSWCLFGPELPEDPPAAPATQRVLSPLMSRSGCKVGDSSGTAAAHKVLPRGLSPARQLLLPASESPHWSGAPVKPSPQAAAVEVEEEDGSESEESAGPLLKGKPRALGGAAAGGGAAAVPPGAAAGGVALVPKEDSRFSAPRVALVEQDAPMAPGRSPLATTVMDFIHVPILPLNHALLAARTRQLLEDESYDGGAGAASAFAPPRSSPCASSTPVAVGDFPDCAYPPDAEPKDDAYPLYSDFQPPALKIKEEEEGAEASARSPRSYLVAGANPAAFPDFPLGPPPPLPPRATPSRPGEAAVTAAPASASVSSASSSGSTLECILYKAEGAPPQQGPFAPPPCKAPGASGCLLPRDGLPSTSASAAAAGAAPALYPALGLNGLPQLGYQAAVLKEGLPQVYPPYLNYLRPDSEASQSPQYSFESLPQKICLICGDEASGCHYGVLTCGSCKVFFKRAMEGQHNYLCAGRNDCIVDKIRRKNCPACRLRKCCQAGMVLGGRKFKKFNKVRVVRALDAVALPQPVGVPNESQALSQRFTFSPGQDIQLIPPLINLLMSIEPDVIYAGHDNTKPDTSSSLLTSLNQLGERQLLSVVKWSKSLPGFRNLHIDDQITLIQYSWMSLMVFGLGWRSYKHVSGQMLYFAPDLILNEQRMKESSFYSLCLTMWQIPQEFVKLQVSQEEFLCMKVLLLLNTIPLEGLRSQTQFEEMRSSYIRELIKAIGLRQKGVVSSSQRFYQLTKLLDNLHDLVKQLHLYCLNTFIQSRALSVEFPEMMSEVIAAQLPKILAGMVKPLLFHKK

## C=C(C)c1cccc(C(C)(C)N=C=O)c1
[1]
  Potency: inactive

## COC(OC)C(C)c1ccccc1 (stereo not given)
[1]
  Potency: inactive

## CC(=O)Nc1nnc(S(N)(=O)=O)s1
[2]
  Potency: inactive

## CN(C)CCCNCCC#N
[3]
  Potency: inactive
[4]
  Potency: inconclusive [cytotoxic, partial curve, poor fit]

## CC1CCc2c(N3CCC(O)CC3)c(F)cc3c(=O)c(C(=O)O)cn1c23 (stereo not given)
[3]
  Potency: inactive
[5]
  Potency: inconclusive [rising, partial curve]

## COc1c(Cl)ccc(Cl)c1C(=O)O
[6]
  Potency: inactive

## CCCC1CCC(=O)O1 (stereo not given)
[3]
  Potency: inconclusive [falling, partial curve, poor fit]
[5]
  Potency: inactive
[2]
  Potency: inactive

## CCCN1C=CN(C)C1
[3]
  Potency: inactive
[7]
  Potency: inconclusive [cytotoxic, full curve] and inactive

## CC(C(=O)O)c1cccc(Oc2ccccc2)c1 (stereo not given)
[6]
  Potency: inactive

## CCOC(=O)C(Br)c1ccccc1 (stereo not given)
[6]
  Potency: inactive

## CCC[C@H](N[C@@H](C)C(=O)N1[C@H](C(=O)O)C[C@@H]2CCCC[C@@H]21)C(=O)OCC
[6]
  Potency: inactive

## CCCCC(CC)COC(=O)CCCCCCCCC(=O)OCC(CC)CCCC (stereo not given)
[6]
  Potency: inactive

## CC(C)C(=O)O
[6]
  Potency: inactive

## CCCCCCC=O
[3]
  Potency: inactive
[5]
  Potency: inactive

## Cc1occc(=O)c1O
[6]
  Potency: inactive

## CC/C=C/CCCCCCCCCCOC(C)=O
[6]
  Potency: inactive

## CCN(CCO)c1cccc(C)c1
[3]
  activity change, negative = inhibition: inconclusive: -25.3%
[7]
  Potency: inconclusive [cytotoxic, single point]

## CCOC(=O)C1=NN(c2ccccc2)C(=O)C1
[6]
  Potency: inactive
